Source: PubChem BioAssay AID2675 (National Center for Advancing Translational Sciences (NCATS), 2010)
Among all 280,000 compounds or so, about 100 (0.036%) were called active. Inconclusive means that the source gave no clear call. Such entries were picked first, then a sample of the others. Calls come from the whole dose curve; as a rule, active = well fitted inhibition curve with a large enough effect in the signal ratio, with a control signal flat (not every such curve was filed as active); inconclusive = small, poorly fitted or top-dose-only effect, or effect the other way, or a change in a side signal; inactive = no such curve, though single readings can be large or run the other way; the % refers to the signal ratio. Potencies beside an inconclusive call are fits to weak or partial responses and may not hold up. A note “side channel” means that the fit belongs to a control or component signal, not to the main read-out.

Biological target: Muscleblind-like protein 1 (Homo sapiens) (UniProt Q9NR56)
UniProt Q9NR56, sequence (Q9NR56 whole entry, looked up): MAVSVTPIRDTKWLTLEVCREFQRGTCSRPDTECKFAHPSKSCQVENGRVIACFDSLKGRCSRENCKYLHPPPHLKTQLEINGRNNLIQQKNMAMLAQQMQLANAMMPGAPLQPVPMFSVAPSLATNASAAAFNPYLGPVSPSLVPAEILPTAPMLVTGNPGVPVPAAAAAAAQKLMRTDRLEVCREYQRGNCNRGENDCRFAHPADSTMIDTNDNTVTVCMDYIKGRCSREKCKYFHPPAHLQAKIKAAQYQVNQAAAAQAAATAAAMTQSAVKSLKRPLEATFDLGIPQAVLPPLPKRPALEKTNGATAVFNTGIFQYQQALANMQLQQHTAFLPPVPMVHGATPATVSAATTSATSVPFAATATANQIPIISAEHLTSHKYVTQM
Assay: qHTS Assay for Inhibitors of MBNL1-poly(CUG) RNA binding
Settings: TR-FRET MBNL1-His/biotin-(CUG)12 binding, 665/545 ratio; series mostly up to 57.5 µM
Procedure, shortened: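 His-tagged MBNL1 binding to biotinylated (CUG)12 RNA was measured by TR-FRET using terbium anti-His antibody (0.055 ng/ul final) and streptavidin-XL665 (5 nM final). Compounds were titrated 92 nM to 58 uM; 60 min at room temperature.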
Potency is the fitted concentration of half-maximal effect; tags give direction and shape of the fitted curve or compound fluorescence and quenching.

SMILES	Potency
COc1ccc(/C=C2\CCc3ccccc3C2=O)c(OC)c1OC	inconclusive: 3.16 µM [quencher, side channel, full curve]
Cc1nc2c(C)cccn2c1C(=O)c1ccccc1	inactive
C/C(=N\NC(=S)NC(C)C)c1ccco1	inconclusive: 31.6 µM [quencher, side channel, single point]
CC(C(O)c1ccc(O)cc1)N1CCC(Cc2ccccc2)CC1 (stereo not drawn)	inactive
CC(C)CN=c1cc(-c2ccccc2)oc2ccc(Cl)cc12	inconclusive: 25.1 µM [quencher, side channel, partial curve]
COc1cc2c(cc1OC)/C(=C/C(=O)c1cccc([N+](=O)[O-])c1)NCC2	inconclusive: 17.8 µM [quencher, side channel, partial curve]
CC1=CC2=NC(=O)CC(C)(C(=O)N(CC(=O)NC3CCCC3)c3ccccc3F)N2C=C1 (stereo not drawn)	inactive
O=C(CCCN1C(=O)/C(=C\c2cccs2)SC1=S)Nc1ccc(O)cc1	inconclusive: 12.6 µM [quencher, partial curve]
O=C1NN(c2cccc(Br)c2)C(=O)/C1=C\c1ccccc1	inactive
CCn1c2ccccc2c2cc(/C=N/NC(=O)c3ccc(O)cc3)ccc21	inconclusive: 0.1 µM [quencher, side channel, full curve]
Cc1nnc(SCC(=O)NC23CC4CC(CC(C4)C2)C3)n(N)c1=O	inactive
NC(=O)c1sc2nc(-c3ccco3)ccc2c1N	inconclusive: 8.91 µM [quencher, side channel, partial curve]
Nc1c(C(=O)NCc2ccccc2)sc2nc3c(cc12)C(=O)CCC3	inconclusive: 3.16 µM [quencher, side channel, full curve, poor fit]
Nc1nnnn1/N=C/c1cc([N+](=O)[O-])ccc1O	inconclusive: 15.8 µM [quencher, side channel, partial curve]
Cc1ccc(C(=O)NCCC(=O)N2CCCC2)cc1	inactive
Cc1cccc(OCC(=O)NCC(=O)N/N=C/c2ccccc2)c1	inactive
CN(C)CCCn1c(N)c(C#N)c2nc3ccccc3nc21	inconclusive: 39.8 µM [quencher, single point]
O=C(Cc1ccc(O)cc1)N/N=C/c1cccs1	inconclusive: 35.5 µM [quencher, side channel, single point]
CCOc1ccccc1NC(=O)CSc1nnc2ccc(-c3ccncc3)nn12	inconclusive: 11.2 µM [quencher, side channel, partial curve]
O=C(CO/N=C/c1cccc([N+](=O)[O-])c1)NC1CCCCC1	inconclusive: 11.2 µM [quencher, side channel, partial curve]
O=C(Nc1cc(Cl)ccc1Oc1ccccc1)c1ccc(F)cc1	inconclusive: 0.282 µM [fluorescent, side channel, partial curve]
CCc1ccc(Oc2cc(Cl)nc(N)n2)cc1	inconclusive: 0.224 µM [fluorescent, side channel, full curve, poor fit]
O=C1Nc2ccccc2C1=Nc1ccc(Cl)cc1	inconclusive: 10 µM [quencher, side channel, partial curve]

SMILES	Potency
COc1ccc(NC(=O)Nc2cccnc2)cc1	inconclusive: 39.8 µM [inhibitor, single point]
Cc1cc(C)n2c(Nc3ccc4c(c3)OCCO4)c(-c3ccco3)nc2n1	inactive
CCc1ccc(N2CCN(CCNC(=O)Nc3ccc(OC)cc3)CC2)cc1	inactive
COC(=O)c1cc(C)cc(=O)o1	inconclusive: 31.6 µM [quencher, side channel, single point]
Cc1ccc(S(=O)(=O)NC(C)(C)CN2CCC(Cc3ccccc3)CC2)cc1	inactive
CC(/C=N/NC(=O)CN1CCN(Cc2ccc(Cl)cc2)CC1)=C\c1ccco1	inactive
COc1ccc2nc(SCC(=O)N3CC(=O)Nc4ccccc43)c(C#N)cc2c1	inconclusive: 31.6 µM [quencher, side channel, single point]
O=C(Nc1nccs1)C(=O)c1c[nH]c2ccccc12	inconclusive: 14.1 µM [quencher, side channel, partial curve]
CCCCn1nc(NC(=O)COC)c2cc3cc(OC)ccc3nc21	inconclusive: 17.8 µM [quencher, side channel, partial curve]
Cc1cc(OC(=O)c2cc([N+](=O)[O-])ccc2Cl)c([N+](=O)[O-])c(=O)[nH]1	inconclusive: 2.82 µM [quencher, side channel, full curve]
O=C(NCCN1CCOCC1)c1cc(Cl)ccc1Cl	inactive
N=C1/C(=C\c2ccc(OC(=O)c3ccco3)cc2)C(=O)N=C2SC=NN12	inconclusive: 39.8 µM [quencher, side channel, single point]
CCc1nc(Nc2ccc(N3CCN(C(C)=O)CC3)cc2)c2oc3ccccc3c2n1	inconclusive: 25.1 µM [quencher, side channel, partial curve]
Cc1cc(C)c2c(N)c(C(=O)NC3CC3)sc2n1	inconclusive: 35.5 µM [quencher, single point]
Cc1cc(OCCN2CC(C)OC(C)C2)ccc1[N+](=O)[O-] (stereo not drawn)	inactive
O=C(N/N=C/c1c[nH]c2ccccc12)c1cccc(O)c1	inactive
O=C(COC(=O)c1cc([N+](=O)[O-])ccc1NCCO)NCc1cccs1	inconclusive: 15.8 µM [quencher, side channel, partial curve]
CC1=CC(=O)C(C(C)C)=CC1=NC(=O)c1ccc(C)cc1	inactive
COc1cc(/C=C/C(=O)OCC(=O)c2c(N)n(C)c(=O)n(C)c2=O)ccc1OCC#N	inconclusive: 8.91 µM [quencher, side channel, full curve, poor fit]
Cc1oc(-c2cccc(C(F)(F)F)c2)nc1CN1CCOCC1	inactive
O=C(N/N=C/c1cccs1)c1ccc2ncccc2c1	inconclusive: 11.2 µM [quencher, side channel, partial curve]
COc1ccc2c(c1)OC/C(=C/c1cccs1)C2=O	inconclusive: 22.4 µM [activator, single point]
CCCN1CCc2c(sc(NC(=O)c3ccc(S(=O)(=O)N4CCN(C(=O)OCC)CC4)cc3)c2C(N)=O)C1	inconclusive: 39.8 µM [quencher, side channel, single point]

SMILES	Potency
S=c1[nH]cc(-c2ccccc2)n1-c1ccccc1	inactive
COc1ccc(NS(=O)(=O)c2ccc(-n3cnnn3)cc2)cc1OC	inactive
CCc1ccc(C(=O)CSc2n[nH]c(-c3ccncc3)n2)cc1	inactive
CCCn1c2ccc(F)cc2c2nnc(SCCN3CCOCC3)nc21	inconclusive: 8.91 µM [quencher, side channel, partial curve]
COc1ccccc1N1CC(O)=C(c2nc3ccccc3c(=O)[nH]2)C1=N	inactive
COC(=O)COc1c(Cl)cc(Cl)c2ccc(C)nc12	inactive
CN(C)c1ccc(/C=N/N2CCN(Cc3ccccc3Cl)CC2)cc1	inactive
CN(C)c1ccc(/C=C(\C#N)c2ccccn2)cc1	inconclusive: 0.141 µM [quencher, side channel, full curve, poor fit]
O=C(NCCc1ccccc1)c1ccc2c(c1)OCCO2	inactive
COC(=O)c1[nH]c2ccccc2c1NC(=O)Oc1ccccc1	inconclusive: 25.1 µM [quencher, side channel, partial curve]
CCCCC(=O)NC(c1ccccc1Cl)c1ccc2cccnc2c1O (stereo not drawn)	inactive
Cc1ccccc1-c1nc(CS(=O)(=O)CC(=O)N2CCc3ccccc3C2)c(C)o1	inconclusive: 1 µM [quencher, side channel, full curve, poor fit]
CSCCC1NC(=O)N(C(C)C(=O)Nc2cc(Cl)cc(Cl)c2)C1=O (stereo not drawn)	inactive
CCN1CCc2c(sc(NC(=O)c3ccc(S(=O)(=O)N(C)CC4CCCO4)cc3)c2C(N)=O)C1 (stereo not drawn)	inconclusive: 25.1 µM [quencher, side channel, single point]
CCS(=O)(=O)N1Cc2ccccc2CC1C(=O)Nc1nc2c(C)cccc2s1 (stereo not drawn)	inconclusive: 2.82 µM [fluorescent, side channel, single point]
CCC(=O)NCCc1nc2cc(NC(=O)c3cccc([N+](=O)[O-])c3)ccc2n1C	inconclusive: 12.6 µM [quencher, side channel, partial curve]
COCCn1c(SCC#N)nnc1-c1ccc([N+](=O)[O-])cc1	inconclusive: 12.6 µM [quencher, side channel, partial curve]
CCCCC1=CC2=CC(=O)C(C)(OC(=O)CC)C(=O)C2=CN1CCCOC(C)C (stereo not drawn)	inconclusive: 22.4 µM [quencher, side channel, single point]
COc1cc(C2C3=C(CC(C)(C)CC3=O)NC3=C2C(=O)c2ccccc23)ccc1O (stereo not drawn)	inconclusive: 12.6 µM [quencher, side channel, partial curve]
Cc1cccnc1NC(=S)NC(=O)c1oc2ccccc2c1C	inactive
O=C1CC(NN2CCCCC2)C(=O)N1c1ccccc1 (stereo not drawn)	inconclusive: 25.1 µM [quencher, side channel, single point]
CN(C)C(=O)c1ccc(Cl)cc1[N+](=O)[O-]	inconclusive: 14.1 µM [quencher, side channel, partial curve]
